# Measurements reported in PubChem BioAssay (NCATS).
# Where “and” joins values, the source holds several entries; their conditions need not be identical. Equal entries are not always repeated. Inconclusive means that the source gave no clear call. Such entries were picked first, then a sample of the others. For part of these data: Where the call is inconclusive, the potency comes from a doubtful curve fit. Calls of active or inactive are those of the source. Calls follow the shape of the dose curve; as a rule, active = well fitted curve in the direction sought with a large enough effect; inconclusive = small, poorly fitted or top-dose-only effect, or another doubt; inactive = no such curve, though single readings can be large; an effect the other way counts as inactive or inconclusive.
# How the values were obtained:
# [1] = Primary qHTS for inhibitors of nuclear receptor binding SET domain protein 2 (NSD2) in an isogenic RCH-ACV NSD2 p.E1099K mutant (9B) (AID 1645876); also: nearly all actives have a fitted effect of over 70% in size
# [2] = Primary qHTS for inhibitors of nuclear receptor binding SET domain protein 2 (NSD2) in an RCH-ACV wild type WT cells (2C) (AID 1645877); settings: activity change, negative = cell killing: at 44.9 µM (top of the series); also: nearly all actives have a fitted effect of over 70% in size
# HEK293 = assay: Cytotoxic Profiling of Annotated Libraries Using Quantitative High-Throughput Screening (AID 1296008); settings: Five cell lines viability, CellTiter-Glo ATP luminescence, 48-72 h; max response: stronger effect = lower value; also: nearly all actives have a fitted effect of over 60% in size; as to max response: % is scaled to controls: 0 for no effect and ±100 for the full control effect
# Procedure, shortened: (§1)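 Cells exposed to compounds for 48 or 72 hr at 37 degrees Celsius. Viability read as ATP-coupled luminescence with CellTiter-Glo after 10 min at room temperature.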
# HaCat = assay: as above; settings: Five cell lines viability, CellTiter-Glo ATP luminescence, 48-72 h; max response: stronger effect = lower value
# Procedure, shortened: as §1
# KB-3-1 = assay: as above; settings: Five cell lines viability, CellTiter-Glo ATP luminescence, 48-72 h; max response: stronger effect = lower value
# Procedure, shortened: as §1
# NIH3T3 = assay: as above; settings: Five cell lines viability, CellTiter-Glo ATP luminescence, 48-72 h; max response: stronger effect = lower value
# Procedure, shortened: as §1
# C33A = assay: Primary qHTS to identify gynecologic anti-cancer compounds using libraries of approved drugs and bioactive compounds (AID 1345084); settings: Gynecologic cancer cell panel viability, ATPlite luminescence, 48 h; series mostly up to 57.5 µM; also: nearly all actives have a fitted effect of over 55% in size; as to activity change, negative = cytotoxicity: % is scaled to controls: 0 for no effect and ±100 for the full control effect
# Procedure, shortened: (§2)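 Cells, 1,000 per well, were allowed to settle for 16 h at 37 C before compound addition. Five concentrations were tested for 48 h, and viability was read by ATPlite luminescence after 15 min at room temperature.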
# CAOV3 = assay: as above; settings: Gynecologic cancer cell panel viability, ATPlite luminescence, 48 h; series mostly up to 57.5 µM
# Procedure, shortened: as §2
# CASKI = assay: as above; settings: Gynecologic cancer cell panel viability, ATPlite luminescence, 48 h; activity change, negative = cytotoxicity: at 57.5 µM (top of the series)
# Procedure, shortened: as §2
# Es-2 = assay: as above; settings: Gynecologic cancer cell panel viability, ATPlite luminescence, 48 h; series mostly up to 57.5 µM
# Procedure, shortened: as §2
# HeLa = assay: as above; settings: Gynecologic cancer cell panel viability, ATPlite luminescence, 48 h; series mostly up to 57.5 µM
# Procedure, shortened: as §2
# Hek293T = assay: as above; settings: Gynecologic cancer cell panel viability, ATPlite luminescence, 48 h, control line for the selectivity index; series mostly up to 57.5 µM
# Procedure, shortened: as §2
# JEG-3 = assay: as above; settings: Gynecologic cancer cell panel viability, ATPlite luminescence, 48 h; series mostly up to 57.5 µM
# Procedure, shortened: as §2
# OV90 = assay: as above; settings: Gynecologic cancer cell panel viability, ATPlite luminescence, 48 h; series mostly up to 57.5 µM
# Procedure, shortened: as §2
# SKOV3 = assay: as above; settings: Gynecologic cancer cell panel viability, ATPlite luminescence, 48 h; series mostly up to 57.5 µM
# Procedure, shortened: as §2
# Tov-21-G = assay: as above; settings: Gynecologic cancer cell panel viability, ATPlite luminescence, 48 h; activity change, negative = cytotoxicity: at 57.5 µM (top of the series)
# Procedure, shortened: as §2
# Tov112D = assay: as above; settings: Gynecologic cancer cell panel viability, ATPlite luminescence, 48 h; activity change, negative = cytotoxicity: at 57.5 µM (top of the series)
# Procedure, shortened: as §2
# [3] = P-glycoprotein substrates identified in KB-8-5-11 adenocarcinoma cell line, qHTS therapeutic library screen (AID 1346987); also: nearly all actives have a fitted effect of over 65% in size
# Procedure, shortened: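 Luminescence from CellTiter-Glo, read 5 min after addition, quantified survival of KB-8-5-11 (P-gp-overexpressing) cells exposed to compounds for 72 h. AC50 was derived from concentration-response curves.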
# [4] = system: Zika virus NS2B-NS3 protease (unlinked complex); assay: Primary screen GU Rhodamine qHTS for Zika virus inhibitors: Unlinked NS2B-NS3 protease assay (AID 1347159); also: nearly all actives have a fitted effect of over 60% in size
# Procedure, shortened: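 Unlinked NS2B/NS3, 25 nM; Rhod110 peptide, 1.5 microM; compounds, up to 114 microM. Reaction run 15 min at RT in 10 mM Tris-HCl pH 8.0, 0.01% Tween 20; kinetic fluorescence change fitted with a 4-parameter Hill model.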
# PA-1 = assay: Primary qHTS to identify gynecologic anti-cancer compounds using libraries of approved drugs and bioactive compounds (AID 1345084); settings: Gynecologic cancer cell panel viability, ATPlite luminescence, 48 h; series mostly up to 57.5 µM; also: nearly all actives have a fitted effect of over 55% in size; as to activity change, negative = cytotoxicity: % is scaled to controls: 0 for no effect and ±100 for the full control effect
# Procedure, shortened: as §2
# Potency is read from the fitted curve at half-maximal effect; tags tell the direction and shape of the fitted curve.
structure (smiles),measurement,setting,value
Cc1cc2nc3ccc(=[N+](C)C)cc-3sc2cc1N,Potency,[1],active: 1.33 µM
same,Potency,[2],active: 1.06 µM
same,Potency,HEK293,active: 0.422 µM
same,Potency,HaCat,active: 6.68 µM
same,Potency,KB-3-1,"inconclusive: 18.4 µM [inhibitor, partial curve, poor fit]"
same,Potency,NIH3T3,active: 10.6 µM
same,Potency,C33A,active: 3.98 µM
same,Potency,CAOV3,"inconclusive: 28.2 µM [cytotoxic, partial curve, poor fit]"
same,Potency,CASKI,active: 12.6 µM
same,Potency,Es-2,active: 14.1 µM
same,Potency,HeLa,"inconclusive: 10 µM [cytotoxic, partial curve]"
same,Potency,Hek293T,active: 14.1 µM
same,Potency,JEG-3,"inconclusive: 7.94 µM [cytotoxic, partial curve, poor fit]"
same,Potency,OV90,active: 22.4 µM
same,Potency,SKOV3,active: 35.5 µM
same,Potency,Tov-21-G,active: 28.2 µM
same,Potency,Tov112D,active: 12.6 µM
N#Cc1cccc(C#N)c1-c1nc2c3ccccc3c3cc(Cl)ccc3c2[nH]1,Potency,[3],active: 23.1 µM
same,Potency,HEK293,"inconclusive: 25.9 µM [inhibitor, single point]"
same,Potency,HaCat,"inconclusive: 29.1 µM [inhibitor, single point]"
same,Potency,KB-3-1,"inconclusive: 20.6 µM [inhibitor, single point]"
same,Potency,NIH3T3,"inconclusive: 23.1 µM [inhibitor, partial curve, poor fit]"
same,Potency,C33A,"inconclusive: 28.2 µM [rising, single point]"
same,Potency,CAOV3,inactive
same,Potency,HeLa,"inconclusive: 35.5 µM [cytotoxic, partial curve, poor fit]"
same,Potency,JEG-3,inactive
same,Potency,SKOV3,"inconclusive: 39.8 µM [rising, single point]"
CC(C)c1cccc(C(C)C)c1NC(=O)Nc1ccc(Sc2ccc([N+](=O)[O-])cc2)cc1,Potency,[4],"inconclusive: 25.1 µM [inhibitor, partial curve]"
same,Potency,[1],"inconclusive: 8.17 µM [inhibitor, partial curve]"
same,Potency,[2],"inconclusive: 7.28 µM [inhibitor, partial curve]"
same,Potency,HEK293,"inconclusive: 29.1 µM [inhibitor, single point]"
same,Potency,HaCat,"inconclusive: 5.8 µM [inhibitor, full curve]"
same,Potency,KB-3-1,active: 10.3 µM
same,Potency,NIH3T3,"inconclusive: 20.6 µM [inhibitor, single point]"
same,Potency,Hek293T,"inconclusive: 39.8 µM [cytotoxic, single point]"
same,Potency,SKOV3,inactive
CC(C)c1c(C(=O)Nc2ccccc2)c(-c2ccccc2)c(-c2ccc(F)cc2)n1CC[C@@H](O)C[C@@H](O)CC(=O)O,Potency,[4],"inconclusive: 31.6 µM [inhibitor, single point]"
same,Potency,HEK293,"inconclusive: 33.5 µM [inhibitor, single point]"
same,Potency,HaCat,"inconclusive: 7.5 µM [inhibitor, partial curve] and inconclusive: 5.44 µM [inhibitor, single point]"
same,Potency,KB-3-1,"inconclusive: 8.62 µM [inhibitor, single point]"
same,Potency,CAOV3,inactive
same,Potency,Es-2,"inconclusive: 28.2 µM [cytotoxic, single point] and inactive"
same,Potency,HeLa,"inconclusive: 39.8 µM [cytotoxic, single point]"
same,Potency,PA-1,"inconclusive: 25.1 µM [cytotoxic, single point] and inconclusive: 7.94 µM [cytotoxic, single point]"
same,Potency,Tov112D,"inconclusive: 39.8 µM [cytotoxic, single point]"
COc1c(C)cnc(Cn2cc(C#CCC(C)(C)O)c3c(Cl)nc(N)nc32)c1C,Potency,HEK293,active: 0.0517 µM
same,Potency,HaCat,active: 0.0731 µM
same,Potency,KB-3-1,"inconclusive: 0.0291 µM [inhibitor, full curve]"
same,Potency,NIH3T3,active: 0.206 µM
same,Potency,C33A,"inconclusive: 0.316 µM [cytotoxic, full curve]"
same,Potency,CAOV3,"inconclusive: 0.141 µM [cytotoxic, full curve, poor fit]"
same,Potency,CASKI,"inconclusive: 0.316 µM [cytotoxic, full curve, poor fit]"
same,Potency,Es-2,"inconclusive: 0.316 µM [cytotoxic, full curve]"
same,Potency,Hek293T,active: 0.282 µM
same,Potency,JEG-3,"inconclusive: 1.26 µM [cytotoxic, full curve]"
same,Potency,OV90,"inconclusive: 0.316 µM [cytotoxic, full curve, poor fit]"
same,Potency,SKOV3,active: 0.251 µM
same,Potency,Tov-21-G,"inconclusive: 0.316 µM [cytotoxic, full curve, poor fit]"
same,Potency,Tov112D,"inconclusive: 0.316 µM [cytotoxic, full curve]"
CC1CCC(n2c3cnccc3c3cnc(Nc4ccc5c(n4)CCN(C(=O)CO)C5)nc32)CC1 (stereo unspecified),Potency,[2],"active: 2.31 µM and inconclusive: 152 nM [inhibitor, full curve]"
same,Potency,HEK293,"inconclusive: 5.17 µM [inhibitor, single point]"
same,max response,HaCat,inactive: -0.578%
same,Potency,KB-3-1,"inconclusive: 20.6 µM [inhibitor, single point]"
same,Potency,NIH3T3,"inconclusive: 6.51 µM [inhibitor, single point]"
same,Potency,PA-1,"inconclusive: 3.16 µM [cytotoxic, partial curve, poor fit]"
same,Potency,SKOV3,"inconclusive: 1.58 µM [cytotoxic, single point]"
